Results reported in paper PMC4336329 (PLoS ONE, 2015).
The campaign covered roughly 310,000 compounds. About 14,000 (4.5%) showed an effect of 50% or more. Effects have a minus sign here. Some of the results follow.

molecular target: human ether-à-go-go-related gene (hERG) potassium channel (human, UniProt Q12809); experiment: primary screen, population patch clamp on CHO cells stably expressing hERG
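Further: peak tail current of the secondary pulse compared with the same well before compound.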

Chain of human ether-à-go-go-related gene (hERG) potassium channel (Q12809 whole entry, looked up): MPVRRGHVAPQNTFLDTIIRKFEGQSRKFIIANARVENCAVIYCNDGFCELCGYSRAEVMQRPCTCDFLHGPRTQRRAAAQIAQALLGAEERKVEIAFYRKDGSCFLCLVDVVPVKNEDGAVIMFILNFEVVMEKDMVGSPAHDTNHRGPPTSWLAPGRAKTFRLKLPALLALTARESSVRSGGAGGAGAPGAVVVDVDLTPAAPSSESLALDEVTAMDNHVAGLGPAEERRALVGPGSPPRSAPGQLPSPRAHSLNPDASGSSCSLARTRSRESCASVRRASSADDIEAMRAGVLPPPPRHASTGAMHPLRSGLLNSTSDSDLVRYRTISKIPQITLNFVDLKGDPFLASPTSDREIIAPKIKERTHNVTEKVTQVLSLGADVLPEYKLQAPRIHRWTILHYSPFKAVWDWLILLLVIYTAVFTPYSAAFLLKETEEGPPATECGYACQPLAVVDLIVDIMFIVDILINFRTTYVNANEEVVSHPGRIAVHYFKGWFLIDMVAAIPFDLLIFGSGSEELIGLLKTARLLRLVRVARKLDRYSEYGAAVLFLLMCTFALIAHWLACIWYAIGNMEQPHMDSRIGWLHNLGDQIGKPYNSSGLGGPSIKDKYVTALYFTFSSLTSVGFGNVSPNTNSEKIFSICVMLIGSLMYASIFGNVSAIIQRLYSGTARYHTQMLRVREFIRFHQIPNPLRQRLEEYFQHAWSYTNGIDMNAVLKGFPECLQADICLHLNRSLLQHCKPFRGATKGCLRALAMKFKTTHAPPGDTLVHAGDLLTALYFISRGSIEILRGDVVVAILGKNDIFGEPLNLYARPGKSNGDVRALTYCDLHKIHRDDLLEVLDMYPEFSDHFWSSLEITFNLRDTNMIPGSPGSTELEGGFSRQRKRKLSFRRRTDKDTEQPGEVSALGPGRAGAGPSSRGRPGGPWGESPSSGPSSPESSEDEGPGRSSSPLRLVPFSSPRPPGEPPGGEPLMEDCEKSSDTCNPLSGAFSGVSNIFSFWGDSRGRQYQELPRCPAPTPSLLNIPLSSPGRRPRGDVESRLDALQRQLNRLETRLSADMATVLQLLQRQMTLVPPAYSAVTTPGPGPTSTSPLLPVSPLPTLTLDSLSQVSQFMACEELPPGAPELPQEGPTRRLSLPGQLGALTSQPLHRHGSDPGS

SMILES	hERG current change (%, negative = inhibition) at 10uM
COc1cccc(/C=C/C(=O)N2CCN(S(=O)(=O)c3ccccc3)CC2)c1OC	-7.35%
O=C(N/N=C1/CCS(=O)(=O)c2ccc(F)cc21)c1cccnc1	32.6%
CN1CCN(c2cc3c(c4c2[nH]c2ccccc24)C(=O)CC(C)(C)C3)CC1.Cl	-16.8%
COc1ccc(N2CCN(C(=O)c3cn(C4CCCC4)c(=O)c4c3c3ccccc3n4C)CC2)cc1	-6.9%
O=C(c1cccs1)N1CCN(S(=O)(=O)N2CCOCC2)CC1	-18.9%
c1ccc2nc(-c3nc4ccccc4[nH]3)ccc2c1	11.1%
CCOC(=O)c1c(NC(=O)CN(CC)CC)sc2c1CCN(C(=O)OCC)C2	-22.2%
CC(Cc1ccccc1)Nc1ncnc2c1ncn2C1OC(CO)C(O)C1O (stereo not shown)	0.256%
COc1cccc(-c2nc(-c3ccccc3)nc(N3CCN(C)CC3)c2C#N)c1	10.7%
COc1ccc2c(CC(=O)Nc3nnc(C4CC4)s3)coc2c1	-10%
O=C(NNC(=O)C1CC1)c1ccccc1[N+](=O)[O-]	7.73%
CSCCC(NC(=O)c1ccccc1)C(=O)NCc1ccc(S(N)(=O)=O)cc1 (stereo not shown)	21.2%
Cc1cc(-c2nnc(CCC(=O)N(C)C(C)c3cccs3)o2)no1 (stereo not shown)	-4.74%
CSc1nnc(CNC(=O)c2ccccc2)n1-c1ccc(F)cc1	16.7%
O=c1c2ccccc2nc2n1CCS2(=O)=O	14.2%
Cc1nn(C)c(C(=O)NC(=S)Nc2ccccc2Br)c1Cl	17.1%
CC1(c2ccccc2Cl)NC(=O)N(CC(=O)Nc2ccccc2OC(F)F)C1=O (stereo not shown)	-9.08%
C=CCNc1nc(-c2ccc([N+](=O)[O-])cc2)cs1	-12%
Cc1cccn2c(=O)nc(SCC(=O)N3CCOCC3)nc12	9.72%
O=C(NCCOc1ccc(Cl)cc1)C(=O)NCC1CCCO1 (stereo not shown)	13.6%
COCCCNC1=C(Cl)C(=O)c2ccccc2C1=O	-7.92%
Cc1ccc(N2CCN(c3ccc(C)cc3)C(CC(=O)O)C2=O)cc1 (stereo not shown)	10.7%
O=C(NC(NC(=S)Nc1ccc(Cl)cc1Cl)C(Cl)(Cl)Cl)c1cccc([N+](=O)[O-])c1 (stereo not shown)	4.13%

SMILES	hERG current change (%, negative = inhibition) at 10uM
O=C(CSc1nc(=O)n(CCCN2CCOCC2)c2c1CCC2)Nc1ccc([N+](=O)[O-])cc1	-60.4%
CN(Cc1ccccc1)S(=O)(=O)c1ccc(Cl)c(C(=O)NCc2ccncc2)c1	-55.8%
CCOC(=O)c1c(-c2ccco2)csc1N	-0.692%
CC(C)(C)c1ccc(S(=O)(=O)Nc2noc3ccccc23)cc1	4.81%
CCOC(=O)N1CCN(C(=O)c2ccccc2NC(=O)COc2ccccc2)CC1	-13.2%
CCOC(=O)C1=C(N)OC2=C(C(=O)CCC2)C1c1sccc1C (stereo not shown)	-28%
O=C(Nc1ccnn1C1CCN(C(=O)c2cccc(Cl)c2)CC1)C1CC1	7.52%
CN(C)CCCOC(=O)c1sc2ccccc2c1Cl.Cl	-50.2%
O=C(CN(c1ccccc1)S(=O)(=O)c1ccc(Cl)cc1)Nc1ccccc1C(=O)N1CCCC1	-54.2%
COc1ccc2nc(C)cc(SCC(=O)O)c2c1	1.15%
Cc1ccc(Cl)cc1N1CCN(C(=O)C2CCN(S(=O)(=O)c3cnc[nH]3)CC2)CC1	-0.787%
CN(CC(=O)Nc1ccccc1F)CC(=O)Nc1ccccc1Br	4.44%
COc1ccc(CNC(=O)CCCCCNC(=O)N2CCn3c2nc2ccccc23)cc1	-30.7%
CN1C2CCC1CC(OC(=O)CCN1CCCC1)C2 (stereo not shown)	6.82%
CC1CCC(=O)N(CCC#N)CC1 (stereo not shown)	-9.42%
CCOc1ccc(Nc2nc(N3CCOCC3)nc(N3CCOCC3)n2)cc1	-17.9%
CC(=O)c1ccccc1NS(=O)(=O)c1cccc2nsnc12	11.7%
Cc1cccc(C(=O)NNC(=O)c2ccc(S(=O)(=O)N3CCOCC3)cc2)c1	5.57%
CCOc1ccc(S(=O)(=O)NCc2csc(C)n2)cc1	-5%
O=C(Oc1nsnc1N1CCOCC1)N1CCCC1	2.82%
CCOC(=O)/C(C#N)=C\C1=C(N2CCOCC2)CC(C)(C)OC1	26.3%
Cc1c(CN(C)C(=O)/C=C/c2ccc([N+](=O)[O-])cc2)cnn1C	-69.6%
COc1ccc(N2CCN(C(=O)CCNS(=O)(=O)c3cccs3)CC2)cc1	-26%

SMILES	hERG current change (%, negative = inhibition) at 10uM
Cc1ccc(C)c(-n2nnnc2SCC(=O)c2ccc3c(c2)NC(=O)CO3)c1	-2.75%
CCOC(=O)c1c(S(=O)(=O)Nc2cccc(Cl)c2)c(C)n(C)c1C	18.7%
Cc1ccc(S(=O)(=O)N2CC(O)C[C@H]2C(=O)OCC(=O)Nc2ccc(N3CCCCC3)cc2)cc1C (stereo partly shown)	-9.93%
c1cncc(-c2nn3c(Cn4nnc5ccccc54)nnc3s2)c1	-13.6%
O=C(NCCOC(=O)c1ccc(S(=O)(=O)N2CCOCC2)cc1)c1cccnc1	-7.08%
CN1CCN(NC(=O)c2cn(-c3ccccc3)nc2-c2ccc(OC(F)F)cc2)CC1.Cl	3%
O=C(C1CCCO1)N(Cc1ccccc1)c1ccccc1 (stereo not shown)	-1.12%
CCN1CCN(Cc2c(O)ccc3c2O/C(=C\C=C\c2ccccc2)C3=O)CC1	-1.47%
O=C(COc1ccc(Cl)cc1)NCCS(=O)(=O)N1CCN(c2ccccc2F)CC1	5.38%
O=C(Cn1c2ccc(F)cc2c2nc3n(c(=O)c21)CCS3)NCC1CCCO1 (stereo not shown)	5.58%
O=C1CC(N2CCN(C(c3ccccc3)c3ccccc3)CC2)C(=O)N1 (stereo not shown)	-0.687%
O=S(=O)(Nc1ccc(N2CCOCC2)cc1)c1ccc(F)cc1F	6.97%
COc1ccc(S(=O)(=O)Cc2ccc(C(=O)N3CCc4ccccc4C3)o2)cc1	-59%
NC(=S)Cc1ccccc1Cl	6.37%
CCc1cc(C(=O)OC)c(NC(=O)CSc2nccn2C)s1	-56.9%
S=P(Nn1cnnc1)(c1ccc(Br)cc1)c1ccc(Br)cc1	-0.834%
COCCN1CCN(C(=O)c2cc(COc3cncc(Cl)c3)on2)CC1	10.6%
COc1ccc(S(=O)(=O)NCCSc2ccccc2)cc1OC	-7.1%
Cc1ccc(NC(=O)c2cccnc2)cc1S(=O)(=O)N(C)C	22.8%
Cc1ccc(S(=O)(=O)CC(=O)Nc2sc(C)c(C)c2C(N)=O)cc1	-1.83%
CN(C)C(=S)NC1(C)CCS(=O)(=O)C1 (stereo not shown)	6.89%
Cc1cccc(C(=O)N(C)c2nnc(-c3ccncc3)s2)c1	1.3%
CCOc1ccc(CN2CCNC(=O)C2CC(=O)NCCCC2CCCC2)cc1 (stereo not shown)	-34.1%

SMILES	hERG current change (%, negative = inhibition) at 10uM
Cc1ccc2c(c1)NC(=O)C(CC(=O)NCc1ccc(F)cc1)O2 (stereo not shown)	-9.72%
CN(C)S(=O)(=O)c1cccc(C(=O)NCC2CCCCC2)c1	-0.436%
COc1ccc(-c2csc(NC(=O)c3cccc(S(=O)(=O)N4CCN(C)CC4)c3)n2)cc1	4.56%
Nc1nc(NCc2ccco2)nc(Nc2ccccc2)c1[N+](=O)[O-]	7.73%
CC(C)c1ccc(CSc2ccc(S(=O)(=O)N3CCOCC3)cn2)cc1	-1.18%
CN(C)S(=O)(=O)c1cc(C(=O)O)c(NC2CCCCC2)cc1Cl	10.7%
N#CC1=C(SCC(=O)Nc2nccs2)NC(=O)CC1c1ccccc1 (stereo not shown)	-25.3%
CN1C(=O)/C(=C\c2ccc(-c3ccccc3)o2)SC1=S	12.3%
CCN1C(=O)c2cccc3c(S(=O)(=O)Nc4nc(C)cs4)ccc1c23	11.7%
O=C(O)CCCC(=O)Nc1c(F)c(F)c(F)c(F)c1F	3.41%
Cc1ccsc1/C=N/N=C/c1sccc1C	13.5%
O=C(O)C(Cc1c[nH]c2ccccc12)NS(=O)(=O)c1ccccc1 (stereo not shown)	-11.3%
CC(=O)Nc1ccc(C(=O)/C=C/c2ccc[nH]2)cc1	8.36%
CC1(C)C(C(=O)O)N2C(=O)C(NC(=O)Cc3ccccc3)C2S1=O.O (stereo not shown)	4.23%
CC(=O)c1ccccc1NC(=O)C1CC(=O)N(c2ccc3c(c2)OCCO3)C1 (stereo not shown)	6.61%
Cn1c(=O)c2c(nc(NC3CCCCC3)n2CC(=O)C23CC4CC(CC(C4)C2)C3)n(C)c1=O	13.9%
CCNc1nc(NC(C)C)nc(N(C)C#N)n1	1.09%
C=CCn1nnnc1-c1cccc(Cl)c1	21.4%
Cc1cc(N(C)C)nc(Nc2ccccc2)n1	-56.8%
O=C(NN=C1CCCCCC1)c1ccc2c(c1)OCO2	22%
CC(C)C(C)(C#N)NC(=O)CSc1nnc(C(F)(F)F)n1C (stereo not shown)	6.45%
Cc1ccc(C)c(N2CCN(C(=O)Cn3cccc3)CC2)c1	-19%
